The test concerns the target T1, soluble recombinant human IGF-1R (Homo sapiens, UniProt P08069).
T1 construct: composed of 2α chains and the extracellular domains of 2β chains; purchased R&D Systems 305-GR-50
Briefly: Biacore X100 single cycle kinetics, around 600 RU captured h-IGF-1R (Example 13). The class given is binding. Conditions: 1:1 model, FIG. 18 sensorgramme. The procedure:
The dissociation constants (KD) of the binding of the antibodies on a recombinant soluble human-IGF-1R were defined by the ratio between the dissociation rate (koff) and the association rate (kon). The kinetic experiments were run on a Biacore X100 device using a CM5 sensor chip activated by a mouse anti-Tag His monoclonal antibody. Around 12000 RU of antibodies are chemically grafted on the carboxymethyldextan matrix using the amine kit chemistry.
The experiments were carried out at 25° C. with a flow rate of 30 μl/min using the HBS-EP+ buffer (GE Healthcare) as the running and sample dilution buffer.
The single cycle kinetic scheme was used to define the kinetic parameters of the binding of the anti-IGF-1R antibodies on a soluble recombinant human IGF-1R captured by its two C-terminal 10 Histidine-tag. • 1—A solution of a soluble recombinant version of the human IGF-1R hetero-tetramere: 2α chains and the extracellular domains of 2β chains expressed with an additional C-terminal 10-His tag (R&D Systems catalogue number 305-GR-50) was injected during one minute on the second flowcell at a concentration of 10 μg/ml. A mean of 587 RU (with a standard deviation 24 RU) of the soluble receptor were captured at each of the 24 cycles realised for this study. • 2—After the capture phase, either the running buffer was injected 5 times (90 s each injection) or a growing range of 5 concentrations of one of the six antibodies was injected (90 s each injection) on both flowcells. […]
The resulting sensorgrams were analysed by the Biaevaluation software with a 1:1 model. […]
For the 6 antibodies tested in this experiment the experimental data fitted well with an 1:1 model with significant koff values when the higher concentration was defined as a constant and the other four concentrations are calculated (see FIG. 18).
The dissociation constants (KD) calculated as the ratio: kof/kon and the half-live of the complexes calculated as the ratio: Ln(2)/koff are represented in the FIGS. 19 and 20. […]
In general terms: In SPR one partner is held on a chip, and binding of the other changes the refractive index at the surface.

B1: c208F2: chimeric 208F2 antibody, heavy chain SEQ ID No. 23, light chain SEQ ID No. 28 (antibody)
heavy: QVQLQQSGPELVKPGASVKMSCKASGYTFTSYYIYWVKQRPGQGLEWLGWIWPGDGSTKYNEKFKDKTTLTADKSSNTAYMFLSSLTSEDSAVYFCASPMITPNYAMDYWGQGASVTVSSASTKGPSVFPLAPSSKSTSGGTAALGCLVKDYFPEPVTVSWNSGALTSGVHTFPAVLQSSGLYSLSSVVTVPSSSLGTQTYICNVNHKPSNTKVDKRV[human IgG1 Fc not written out]
light: DIQMTQTTSSLSASLGDRVTISCRASQDISKYLNWYQQQPDGTIKLLIYYTSRLHSGVPSRFSGRGSGTDYSLTISNVEQEDIATYFCQQGSTLPYTFGGGTKLEIKRTVAAPSVFIFPPSDEQLKSGTASVVCLLNNFYPREAKVQWKVDNALQSGNSQESVTEQDSKDSTYSLSSTLTLSKADYEKHKVYACEVTHQGLSSPVTKSFNRGEC
modifications: c208F2, heavy chain, full length; c208F2, light chain, full length
Regarding B1, the Rmax is 307.6±0.3 RU, the koff entry is “(7.81±0.18)×10^−5 s^−1” and the kon entry is recorded as “(1.206±0.036)×10^6 M^−1·s^−1”.

Source of the values: patent US20170043031A1, “IGF-1R ANTIBODY-DRUG-CONJUGATE AND ITS USE FOR THE TREATMENT OF CANCER” (PIERRE FABRE MEDICAMENT, priority 2014, published 2017).
